# Laboratory results: the supplement of paper PMC6451100
# The list shows a part of the results. Read counts after selection give these values, which scatter widely.
# System: Drosophila AGO1 (endogenous, S2-R+ lysate)
# Assay: AGO1 loading enrichment factor (IP read count / input read count, not library-size normalised) (ratio); higher = more efficient loading into AGO1
# Conditions: randomized region: 5' 5N of miR-317 loop
# Experimental: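 HISSA: 5'-phosphorylated, 32P-labelled 20-nt ssRNA oligos (miR-317 loop, first 5 nt randomized, constant 3' part TGAAATGCAAGCAAG as printed in methods; DNA letters for RNA) incubated 1 h at 25°C in S2-R+ cell lysate. Endogenous AGO1 was immunopurified with anti-AGO1 and bound oligos were sequenced after splinted ligation.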
# 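Further: S2-R+ lysate came from cells stably expressing FLAG-tagged AGO2, enrichment per 5N variant computed with FASTAptamer, reads lacking the constant 3′ segment discarded.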
row,Sequence,AGO1 loading enrichment factor
1,ACAAGTGAAATGCAAGCAAG,0.214
2,GGAACTGAAATGCAAGCAAG,0.195
3,CCCACTGAAATGCAAGCAAG,0.123
4,GAGGTTGAAATGCAAGCAAG,0.554
5,CAAGATGAAATGCAAGCAAG,0.102
6,TGTGGTGAAATGCAAGCAAG,0.197
7,AATACTGAAATGCAAGCAAG,0.278
8,GGCACTGAAATGCAAGCAAG,0.0816
9,ATACATGAAATGCAAGCAAG,0.183
10,CGGTATGAAATGCAAGCAAG,0.107
11,ATCGCTGAAATGCAAGCAAG,0.113
12,CATGTTGAAATGCAAGCAAG,0.0534
13,TTCCCTGAAATGCAAGCAAG,1.04
14,TAGACTGAAATGCAAGCAAG,0.453
15,ACAGTTGAAATGCAAGCAAG,0.165
16,CAGGGTGAAATGCAAGCAAG,0.453
17,GCATGTGAAATGCAAGCAAG,0.00702
18,GCAACTGAAATGCAAGCAAG,0.132
19,AGATGTGAAATGCAAGCAAG,0.158
20,GTAGTTGAAATGCAAGCAAG,0.0976
21,AATCATGAAATGCAAGCAAG,0.217
22,GATGGTGAAATGCAAGCAAG,0.535
23,ATGTATGAAATGCAAGCAAG,0.0838

row,Sequence,AGO1 loading enrichment factor
1,GGGGCTGAAATGCAAGCAAG,0.209
2,GAGTATGAAATGCAAGCAAG,0.106
3,AACATTGAAATGCAAGCAAG,0.11
4,TGGTATGAAATGCAAGCAAG,0.128
5,GTCCTTGAAATGCAAGCAAG,0.0491
6,TCAACTGAAATGCAAGCAAG,0.329
7,TGGATTGAAATGCAAGCAAG,0.122
8,GGTACTGAAATGCAAGCAAG,0.114
9,GTATGTGAAATGCAAGCAAG,0.0592
10,GATCATGAAATGCAAGCAAG,0.229
11,TGCGTTGAAATGCAAGCAAG,0.0532
12,GACTTTGAAATGCAAGCAAG,1.02
13,TTCGCTGAAATGCAAGCAAG,0.0254
14,ATTGTTGAAATGCAAGCAAG,0.313
15,TAAACTGAAATGCAAGCAAG,0.62
16,GGCTTTGAAATGCAAGCAAG,0.0676
17,AGAATTGAAATGCAAGCAAG,0.0994
18,CGCATTGAAATGCAAGCAAG,0.0252
19,GAACATGAAATGCAAGCAAG,0.0998
20,AAGGGTGAAATGCAAGCAAG,0.453
21,AATAATGAAATGCAAGCAAG,0.195
22,ACTAATGAAATGCAAGCAAG,0.2
23,TCAGCTGAAATGCAAGCAAG,0.0994

row,Sequence,AGO1 loading enrichment factor
1,TCAGTTGAAATGCAAGCAAG,0.376
2,GCATATGAAATGCAAGCAAG,0.00913
3,CAAGTTGAAATGCAAGCAAG,0.0742
4,GGAGTTGAAATGCAAGCAAG,0.404
5,TATTGTGAAATGCAAGCAAG,1.21
6,CATAATGAAATGCAAGCAAG,0.113
7,AAATCTGAAATGCAAGCAAG,0.122
8,GTTCGTGAAATGCAAGCAAG,0.0521
9,GGGTCTGAAATGCAAGCAAG,0.348
10,GAGTCTGAAATGCAAGCAAG,0.18
11,GGTGCTGAAATGCAAGCAAG,0.0776
12,AGTTGTGAAATGCAAGCAAG,0.0858
13,AAAATTGAAATGCAAGCAAG,0.153
14,TACGCTGAAATGCAAGCAAG,0.356
15,GGTCGTGAAATGCAAGCAAG,0.319
16,CCTAATGAAATGCAAGCAAG,0.0321
17,ACCTCTGAAATGCAAGCAAG,0.176
18,GACGTTGAAATGCAAGCAAG,13.3
19,GACATTGAAATGCAAGCAAG,3.29
20,GAGGCTGAAATGCAAGCAAG,0.0578
21,ACATCTGAAATGCAAGCAAG,0.137
22,AAACCTGAAATGCAAGCAAG,0.494
23,AACTCTGAAATGCAAGCAAG,0.267

row,Sequence,AGO1 loading enrichment factor
1,ACCCCTGAAATGCAAGCAAG,0.0502
2,AAGGATGAAATGCAAGCAAG,0.271
3,GGGGGTGAAATGCAAGCAAG,3
4,TTCAATGAAATGCAAGCAAG,1.06
5,TGTGCTGAAATGCAAGCAAG,0.0841
6,GCTTTTGAAATGCAAGCAAG,0.0318
7,TTGTTTGAAATGCAAGCAAG,0.172
8,CGGACTGAAATGCAAGCAAG,0.123
9,ATCTATGAAATGCAAGCAAG,0.152
10,GCGCGTGAAATGCAAGCAAG,0.642
11,CCACCTGAAATGCAAGCAAG,0.247
12,TCAAGTGAAATGCAAGCAAG,0.261
13,CCTGTTGAAATGCAAGCAAG,0.0193
14,CATTGTGAAATGCAAGCAAG,0.0401
15,GAAATTGAAATGCAAGCAAG,0.125
16,GGCGATGAAATGCAAGCAAG,3.21
17,AGAACTGAAATGCAAGCAAG,0.0996
18,GATTGTGAAATGCAAGCAAG,0.0417
19,CTGCCTGAAATGCAAGCAAG,0.122
20,GGTCATGAAATGCAAGCAAG,0.137
